# Some of the results follow. Sequences were assembled here from the parent chain. Inactive controls read about 0.05.
# B1: TEV protease; numbered along this chain (parent)
# chain: MGESLFKGPRDYNPISSSICHLTNESDGHTTSLYGIGFGPFIITNKHLFRRNNGTLVVQSLHGVFKVKDTTTLQQHLVDGRDMIIIRMPKDFPPFPQKLKFREPQREERICLVTTNFQTKSMSSMVSDTSCTFPSGDGIFWKHWIQTKDGQCGSPLVSTRDGFIVGIHSASNFTNTNNYFTSVPKNFMELLTNQEAQQWVSGWRLNADSVLWGGHKVFMVKPEEPFQPVKEATQL
# Variants of: B1
# Assay: raw area under fraction-flipped curve 0-4 h after induction (AUC4h, not background-subtracted), DNA-recorder readout of cleavage of the substrate (dimensionless); higher = more cleavage of the substrate by the protease variant
# Conditions: temperature: 34 °C; time window: 0-4 h after rhamnose induction
# Protocol: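 In vivo DNA recorder in E. coli TOP10(DE3) ΔrhaA at 34 °C. Each TEVp single-site mutant (parent TEVp 0) is paired with a single-site variant of the 7-mer TEVs (canonical ENLYFQ|S). The substrate sits between flexible linkers in a Bxb1-sfGFP-TEVs-SsrA fusion, so cleavage stabilises Bxb1 and speeds flipping of a recombination array, read by NGS. The value is the raw area under the fraction-flipped curve over 0-4 h after rhamnose induction (AUC4h), with ≥20 reads per time point. It is not background-subtracted; inactive controls average about 0.047.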
# 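Note: Bxb1 expression induced with 0.2% (w/v) L-rhamnose at OD600 near 0.5, cultures sampled hourly, flipped fraction per protease–substrate barcode pair counted by paired-end Illumina sequencing.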
Variant,area with substrate ENAYFQS,area with substrate ENCYFQS,area with substrate ENDYFQS,area with substrate ENEYFQS,area with substrate ENFYFQS,area with substrate ENGYFQS,area with substrate ENHYFQS,area with substrate ENMYFQS,area with substrate ENNYFQS,area with substrate ENQYFQS,area with substrate ENRYFQS,area with substrate ENSYFQS,area with substrate ENTYFQS,area with substrate ENVYFQS,area with substrate ENYYFQS,area with substrate ENIYFQS,area with substrate ENPYFQS,area with substrate ENWYFQS,area with substrate ENKYFQS
T44A,0.0526,0.0701,0.0668,0.0631,0.0551,0.0544,0.0593,0.0716,0.0542,0.0565,0.0605,0.0544,0.0609,0.0656,0.0623,–,–,–,–
T44F,0.0602,0.0576,0.0525,0.0575,0.0513,0.0397,0.0592,0.0588,0.0598,0.0462,–,0.0542,0.039,0.0536,0.0483,0.0497,0.0452,0.038,–
L48E,0.0589,0.0676,0.0608,–,0.0478,0.0576,–,–,0.0619,0.0573,–,0.0557,–,–,–,0.0636,0.0509,0.0606,–
L48C,0.0651,0.0612,0.0603,0.0592,0.0677,0.0571,0.0609,–,–,–,0.0594,0.0588,0.0584,–,0.0557,–,0.0539,–,0.0639
L48I,0.0593,–,0.0524,0.062,0.0548,0.0611,–,–,0.0581,0.0635,–,0.072,0.0627,0.0803,0.0755,–,0.0506,0.0544,–
L48M,0.0484,0.0604,0.0403,0.0648,0.064,0.0579,0.0457,0.0763,0.0665,0.072,0.0516,0.0597,0.045,0.0631,–,–,0.0566,–,–
L48N,0.0644,0.0633,0.0624,0.0551,0.0605,0.0512,0.0624,–,0.0615,0.0533,–,0.0569,–,0.0467,0.0545,0.0535,0.0591,0.0082,–
L48K,0.0619,0.0492,0.0536,0.0633,0.0465,–,–,0.0741,0.0562,0.0518,0.0644,0.0577,0.0675,–,–,–,–,0.049,–
L48S,0.0584,0.0657,0.0648,0.0588,0.0562,–,0.0744,–,0.0549,0.0718,0.0565,0.0734,0.0603,0.0552,0.0641,0.0713,0.0648,–,0.102
L48Q,0.0602,0.0662,0.0626,0.0607,0.0716,0.0603,0.0568,0.0546,0.0635,0.0562,0.061,0.0549,0.0967,0.0805,0.0458,0.0558,–,0.0596,0.0585
L48A,0.0701,0.0608,0.0678,0.0628,0.0505,0.0735,0.0617,0.0675,0.051,0.0578,–,0.0634,0.0778,0.0678,–,0.0762,0.0699,0.0568,0.0604
L48G,0.0555,0.0631,0.0637,0.0616,–,0.0729,0.0646,0.0727,0.069,0.0621,0.068,0.0629,–,0.0659,0.0688,–,0.0516,–,0.0691
L48V,0.0682,0.0632,0.0654,0.0573,0.0552,0.0589,0.0578,0.0604,0.0594,0.0631,0.059,0.0642,0.0641,0.0616,0.0575,0.0754,0.0606,0.0565,0.0741
L48W,0.0668,0.0555,0.0649,0.0635,0.0535,0.047,0.077,0.0764,0.0665,0.0601,0.0588,0.064,0.0596,0.0594,0.0495,0.0781,0.0525,0.0596,0.067
L48F,0.0394,–,0.066,0.0654,–,0.0534,0.0599,–,0.0652,0.0759,0.079,0.068,0.0608,0.092,0.0695,–,0.0548,0.0438,0.0594
L48R,0.0617,0.0663,0.0555,0.07,0.0803,–,0.0611,–,0.067,0.0617,0.0593,0.0583,–,0.0574,0.0526,0.0459,0.0676,–,0.065
P40L,0.0623,0.0622,0.0521,0.0567,0.0451,0.0446,–,–,0.0495,0.0494,0.0466,0.0491,0.0415,0.0822,0.0431,0.129,0.0685,0.0501,–
P40S,0.0547,0.0688,0.071,0.0594,0.0607,0.0576,0.0629,0.0804,0.0526,0.0562,0.0564,0.0583,0.0582,0.0757,–,0.0906,0.0817,–,0.0564
P40T,0.0563,0.0611,0.0639,0.0567,0.0809,0.0654,0.0614,0.108,0.0646,0.0533,0.06,0.0755,0.0624,0.0742,–,–,–,–,–
P40R,0.0803,–,–,0.0635,0.0681,0.0633,0.0706,–,0.0591,0.0518,0.0609,0.0605,–,0.077,–,0.106,0.07,0.0533,–
K46S,0.0628,0.0614,0.0709,0.062,0.0605,0.0552,0.0104,0.0657,0.0561,0.0621,0.0704,0.0762,0.0647,0.0566,0.0353,0.107,–,0.0567,0.102
I43R,0.0542,0.0219,0.0463,0.0418,0.0477,0.0481,0.0687,0.0345,0.0469,0.0357,0.0458,0.0432,0.0432,–,0.0416,–,0.0469,–,0.0535
I43K,0.0521,0.047,0.0475,0.0496,0.0519,0.0467,0.0529,0.0458,–,0.0406,0.0458,0.0477,0.0423,0.0428,0.054,–,0.0534,–,0.0545
